# Measured values taken from publication PMC4336329 (PLoS ONE, 2015).
# Among all 310,000 compounds or so, about 2,200 (0.71%) showed an effect of 50% or more. The effect is printed as a negative number. The list shows a part of the results.
# Molecular target: human ether-à-go-go-related gene (hERG) potassium channel (human, UniProt Q12809)
# Test: primary screen, population patch clamp on CHO cells stably expressing hERG
# human ether-à-go-go-related gene (hERG) potassium channel, sequence (Q12809 whole entry, looked up): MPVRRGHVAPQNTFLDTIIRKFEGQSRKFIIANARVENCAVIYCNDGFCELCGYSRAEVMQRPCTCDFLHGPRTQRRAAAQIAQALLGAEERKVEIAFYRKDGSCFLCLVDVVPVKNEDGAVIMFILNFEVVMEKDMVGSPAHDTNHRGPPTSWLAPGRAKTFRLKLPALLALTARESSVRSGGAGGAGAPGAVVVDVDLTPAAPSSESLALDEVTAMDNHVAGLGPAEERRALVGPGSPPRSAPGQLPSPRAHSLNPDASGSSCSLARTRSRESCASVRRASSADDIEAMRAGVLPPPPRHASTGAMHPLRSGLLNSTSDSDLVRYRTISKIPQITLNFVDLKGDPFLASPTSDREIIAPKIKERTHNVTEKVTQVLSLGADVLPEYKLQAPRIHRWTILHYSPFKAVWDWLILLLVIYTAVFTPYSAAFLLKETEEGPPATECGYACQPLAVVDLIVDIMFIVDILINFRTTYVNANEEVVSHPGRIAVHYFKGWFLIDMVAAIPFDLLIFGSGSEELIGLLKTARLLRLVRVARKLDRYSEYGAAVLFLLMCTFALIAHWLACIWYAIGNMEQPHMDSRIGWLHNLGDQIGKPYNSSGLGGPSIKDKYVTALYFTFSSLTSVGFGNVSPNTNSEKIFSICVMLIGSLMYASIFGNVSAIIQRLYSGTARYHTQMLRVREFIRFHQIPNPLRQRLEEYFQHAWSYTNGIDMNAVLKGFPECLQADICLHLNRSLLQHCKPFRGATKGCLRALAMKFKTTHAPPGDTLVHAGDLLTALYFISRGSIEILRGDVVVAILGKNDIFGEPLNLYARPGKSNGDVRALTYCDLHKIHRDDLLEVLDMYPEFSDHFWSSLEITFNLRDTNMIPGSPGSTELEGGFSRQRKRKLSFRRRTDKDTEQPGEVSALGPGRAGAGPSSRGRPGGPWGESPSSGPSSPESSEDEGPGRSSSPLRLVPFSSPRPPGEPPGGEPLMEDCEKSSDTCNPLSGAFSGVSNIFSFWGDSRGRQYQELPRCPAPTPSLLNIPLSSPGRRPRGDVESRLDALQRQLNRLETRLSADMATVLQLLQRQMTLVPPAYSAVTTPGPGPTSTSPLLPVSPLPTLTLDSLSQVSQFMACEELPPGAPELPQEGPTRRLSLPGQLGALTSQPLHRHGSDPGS
row,Structure (SMILES),"hERG current change (%, negative = inhibition) at 1uM"
1,O=C(CCn1c(=O)oc2ccccc21)N1CCN(C(c2ccccc2)c2ccccc2)CC1,8.6%
2,O=C(O)CSc1c2c(nc3cc(C(=O)Nc4ccc(F)c(Cl)c4)ccc13)CCCC2,-0.861%
3,COc1cccc(NC(=O)CSc2nnc(-c3cccc(OC(C)C)c3)n2N)c1,19.4%
4,Cc1cc(Cl)c2oc(C(=O)N(C)Cc3cc(C)[nH]n3)c(C)c2c1,15.9%
5,COc1cc(/C=N/NS(=O)(=O)c2ccccc2)c(OC)c(OC)c1,12.4%
6,CN1C(=O)NC(c2ccccc2)C2=C1CN(CCc1ccccc1)C2=O (centres unmarked),7.43%
7,Clc1ccccc1Cc1noc(CN2CCN(c3cnccn3)CC2)n1,12.8%
8,CCc1nnc(NC(=O)c2cc(-c3ccc(C)o3)nc3ccccc23)s1,4.02%
9,C/C(=N\Nc1ccc(C#N)cc1[N+](=O)[O-])c1ccc(O)cc1,7.9%
10,Cc1ccc(OCc2nn3c(-c4ccco4)nnc3s2)cc1,10.6%
11,C[C@H](NC(=O)c1ccccc1Cl)C(=O)NCc1cccs1,22.4%
12,COc1ccc(OC)c(NC(=O)c2cc(OC(C)=O)cc(C(=O)Nc3cc(OC)ccc3OC)c2)c1,9.21%
13,C=CCOc1ccc2c(c1)c(=O)cc(C(=O)O)n2CC,12.3%
14,CCCCCCOc1ccc(C(=O)O)cc1,11.9%
15,Cc1ccc(NC(=O)CSc2nnc(NC(=O)C3CC3)s2)cc1C,13.6%
16,CN1CCN(C(=O)CN(c2cccc(Cl)c2)S(=O)(=O)c2ccccc2)CC1,5.16%
17,O=C1C2CC=C(Cl)CC2C(=O)N1c1ncn[nH]1 (centres unmarked),21.3%
18,Cc1ccc(S(=O)(=O)NCCCCCC(=O)NC(C)(C)CO)cc1,13.6%
19,CCOC(=O)Nc1ccc2c(c1)N(C(=O)OC)c1ccccc1CC2,6.09%
20,O=C(CC1NCCNC1=O)NC1Cc2ccccc2C1 (centres unmarked),9.18%
21,COC(=O)c1ccc(NC(C)=O)o1,4.12%
22,Cc1ccc(NC(=O)CC2Oc3ccccc3NC2=O)c(C)c1 (centres unmarked),11.3%

row,Structure (SMILES),"hERG current change (%, negative = inhibition) at 1uM"
1,COc1ccc(C(c2nnnn2C(C)(C)C)N2CCN(C)CC2)cc1OC (centres unmarked),5.69%
2,O=C(N/N=C/c1cccs1)c1n[nH]c2c1CCCC2,20%
3,O=C(/C=C/c1ccccc1Cl)c1ccccc(=O)c1O,12.5%
4,Cc1cc(-c2ccccc2)c2c3c(cn2n1)c(=O)n(C)c(=O)n3C,8.33%
5,COCc1cc(C)nc(OCC(=O)N/N=C\c2cc(C)n(-c3cccc(C(F)(F)F)c3)c2C)c1C#N,9.35%
6,Cc1ccc(CNC(=O)c2cc(S(=O)(=O)N3CCOCC3)cn2C)cc1,1.03%
7,CCOC(=O)[C@H]1[C@H]2COc3ccc(Cl)cc3[C@@H]2N2C(=O)c3cc(C)ccc3NC(=O)[C@@]12C,9.03%
8,O=C(c1ccco1)N1CCN(C(=S)Nc2ccc(F)cc2)CC1,9.43%
9,CC1CCCN(S(=O)(=O)c2ccc3c(c2)n(C)c(=O)c(=O)n3C)C1 (centres unmarked),9.16%
10,O=C(Nc1cccc(C(=O)N2CCN(c3cccc(Cl)c3)CC2)c1)c1ccccc1,-2.12%
11,CCn1cc(C(=O)OC)c(=O)c2ccc(C)nc21,5.49%
12,CN(C)S(=O)(=O)c1ccc(Cl)c(-c2nnc3n2CCCCC3)c1,7.11%
13,CCOc1ccccc1NC(=O)c1nnn(CC(=O)Nc2cc(C)cc(C)c2)c1N,14.1%
14,NC(=O)c1ccc[n+](CCC[n+]2cccc(C(N)=O)c2)c1.[Br-],15%
15,COc1ccc(/C=N/Nc2ccccn2)cc1O,6.67%
16,COc1ccc(-c2cc(=O)n(-c3ccc([N+](=O)[O-])cc3)[nH]2)cc1,-3.01%
17,COn1c(=O)c(=O)n(OC)c2ccccc21,1.62%
18,O=C(COC(=O)C1C2CC3OC(=O)C1C3C2)Nc1ccccc1 (centres unmarked),10.4%
19,CC(C)c1c(O)nc(SCc2ccccc2)[nH]c1=O,15.3%
20,N#C/C(=C\c1cccs1)C(=O)c1ccccc1,12.6%
21,Cc1nn(-c2cccc(C(F)(F)F)c2)c(Cl)c1/C=N/Nc1cccc(C(=O)O)c1,12.3%
22,O=C(O)/C=C/C(=O)NCCC(c1ccccc1)c1ccccc1,16.7%
